Some of the results follow. The energies were worked out here from pooled read counts, against the library average; single values are noisy.

The assay has as its target T1, Pho4 (S. cerevisiae) (UniProt P07270).
T1 sequence: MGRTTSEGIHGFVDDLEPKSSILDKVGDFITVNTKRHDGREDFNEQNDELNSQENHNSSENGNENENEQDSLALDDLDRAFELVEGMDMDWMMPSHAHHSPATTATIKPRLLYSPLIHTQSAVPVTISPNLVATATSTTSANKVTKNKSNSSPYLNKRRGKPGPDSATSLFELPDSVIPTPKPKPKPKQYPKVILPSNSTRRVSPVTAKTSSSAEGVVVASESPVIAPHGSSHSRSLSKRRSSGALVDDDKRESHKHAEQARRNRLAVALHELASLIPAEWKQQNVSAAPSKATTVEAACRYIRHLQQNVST
Put plainly: relative binding free energy (BET-seq); higher = weaker binding. Particulars: reference: library average.
As to AAGCTCACGTGTGTGA, the “relative binding free energy” value was determined as 0.29 kcal/mol. As for TGTAGCACGTGAAAGT, the “relative binding free energy” value came out at 0.14 kcal/mol. To GATTACACGTGGATTG belongs -0.02 kcal/mol; to GAGGGCACGTGTGGGC, -0.01 kcal/mol; to TAGGTCACGTGTCTGT, 0.16 kcal/mol. As to GTGCTCACGTGGAGTA, the “relative binding free energy” value stood at 0.29 kcal/mol.

As to CCGGTCACGTGGGTAT, the “relative binding free energy” value was determined as 0.05 kcal/mol.

As for GAGAGCACGTGGGCGT, the “relative binding free energy” value was -0.04 kcal/mol. The result for TTGTACACGTGTTCTG reads 0.01 kcal/mol; that for ACTGGCACGTGTTTGG, -0.07 kcal/mol. TTTGTCACGTGAAGTA: the “relative binding free energy” value is 0.37 kcal/mol. The result for ATATACACGTGTTAGT reads 0.02 kcal/mol; that for GGCTTCACGTGTGGTT, 0.18 kcal/mol; that for GTTTCCACGTGATGTA, 0.35 kcal/mol. With TGGGACACGTGGATTG, the “relative binding free energy” value came to 0.03 kcal/mol. Turning to TTTGCCACGTGCGTAT, the “relative binding free energy” value is -0.06 kcal/mol. The result for TGTCGCACGTGGGGAT reads -0.16 kcal/mol; that for GGGGCCACGTGACAGG, 0 kcal/mol; that for TATTGCACGTGGCGGG, -0.16 kcal/mol.

Turning to AGAGGCACGTGAGTTT, the “relative binding free energy” value was found to be 0.2 kcal/mol. As for GTGTGCACGTGTTGGC, the “relative binding free energy” value was found to be 0.12 kcal/mol.

As for TTTGTCACGTGATTCC, the “relative binding free energy” value was determined as 0.36 kcal/mol. Turning to AGTAACACGTGGAGCG, the “relative binding free energy” value came out at 0.05 kcal/mol. Turning to CTTAGCACGTGATGTT, the “relative binding free energy” value stood at 0.02 kcal/mol.

Regarding TCCTGCACGTGATGGT, the “relative binding free energy” value came out at 0.05 kcal/mol.

As for TTATGCACGTGTTGAT, the “relative binding free energy” value was -0.05 kcal/mol. To CGAGTCACGTGTTGGA belongs 0.08 kcal/mol; to AATGGCACGTGTAGGT, -0.02 kcal/mol; to ATTTGCACGTGTTTAA, -0.2 kcal/mol. For the sequence AGCTTCACGTGAGGTG, the “relative binding free energy” value was 0.47 kcal/mol. Regarding GTCGACACGTGTTTTG, the “relative binding free energy” value was determined as 0.02 kcal/mol. To GAATTCACGTGGGTTC belongs 0.26 kcal/mol; to TCGGGCACGTGTTCGA, 0.05 kcal/mol; to TTTAACACGTGGAATG, 0.11 kcal/mol. For the sequence CTAGGCACGTGGGGCT, the “relative binding free energy” value was -0.37 kcal/mol. To AGTGTCACGTGTGGTT belongs 0 kcal/mol; to TTAGCCACGTGTAAGT, 0.08 kcal/mol; to ATGTTCACGTGGGTGG, 0.19 kcal/mol.

CATTGCACGTGAGTTT: the “relative binding free energy” value is 0.13 kcal/mol. The result for TTGAGCACGTGTATAA reads 0.09 kcal/mol; that for ATAAGCACGTGGGGGT, -0.18 kcal/mol; that for TTGAACACGTGTTTAT, 0.04 kcal/mol. Take ATTGTCACGTGGCTGT: the “relative binding free energy” value was 0.08 kcal/mol. To GTTTACACGTGTTAGA belongs 0.24 kcal/mol; to ATATGCACGTGTGGGA, -0.01 kcal/mol; to GTTTTCACGTGTGCGC, 0.46 kcal/mol.

TTGTACACGTGGTTTG: the “relative binding free energy” value was 0.06 kcal/mol.

Consider AGGGCCACGTGATGAG, for which the “relative binding free energy” value was found to be 0.06 kcal/mol. The result for ATATTCACGTGTAGCT reads 0.16 kcal/mol; that for TAGTTCACGTGAGTAT, 0.53 kcal/mol; that for TTTTCCACGTGTTGAA, 0.03 kcal/mol. To CGGACCACGTGTAGGT belongs 0.14 kcal/mol; to TACGTCACGTGTAGCG, 0.16 kcal/mol.

For the sequence CGTCACACGTGGTGGG, the “relative binding free energy” value worked out at 0.03 kcal/mol.

Regarding ATAATCACGTGGGTGT, the “relative binding free energy” value is -0.11 kcal/mol. Turning to GTGCACACGTGAGAGG, the “relative binding free energy” value is 0.36 kcal/mol. To TAAATCACGTGCTGGG belongs 0 kcal/mol; to GTGGGCACGTGGAACT, 0.06 kcal/mol. The result for TTTATCACGTGTCGAG reads 0.11 kcal/mol; that for ACTGTCACGTGTTTTG, -0.01 kcal/mol. GTATTCACGTGCGTTG: the “relative binding free energy” value worked out at 0.18 kcal/mol. To TGGGGCACGTGTAGGC belongs -0.05 kcal/mol; to ATGTTCACGTGGTGCT, 0.14 kcal/mol; to GACCTCACGTGGTGGG, 0.39 kcal/mol. Consider AAAAGCACGTGGGCGT, for which the “relative binding free energy” value was -0.12 kcal/mol. To GTTCTCACGTGTAGGG belongs 0.29 kcal/mol. To CGTATCACGTGTGGAG belongs 0.2 kcal/mol; to TAGGTCACGTGTAATC, 0.24 kcal/mol.

As to GTTAACACGTGCGGGG, the “relative binding free energy” value amounted to 0.01 kcal/mol. Turning to TTGGACACGTGCTAGG, the “relative binding free energy” value is -0.05 kcal/mol.

Consider AAGGACACGTGGGGAG, for which the “relative binding free energy” value is 0 kcal/mol.

As for CGGGGCACGTGGGTAT, the “relative binding free energy” value was -0.16 kcal/mol.

Regarding AGGGGCACGTGGATGT, the “relative binding free energy” value stood at 0 kcal/mol. In the case of GGATACACGTGAGCGT, the “relative binding free energy” value worked out at 0.35 kcal/mol. With TACGTCACGTGTCTGG, the “relative binding free energy” value was 0.13 kcal/mol. To TTTTGCACGTGTCTCT belongs -0.04 kcal/mol; to TAGGTCACGTGATGCA, 0.14 kcal/mol; to AGTTGCACGTGCTGGA, 0.01 kcal/mol.

GGTCACACGTGGGTCT: the “relative binding free energy” value was -0.06 kcal/mol.

In the case of GAATACACGTGGTTTG, the “relative binding free energy” value was -0.02 kcal/mol.

For GGTTACACGTGTAAAT, the “relative binding free energy” value was 0.4 kcal/mol.

As to TGTTGCACGTGGGATC, the “relative binding free energy” value is -0.09 kcal/mol.

As for CGTTACACGTGGCGAG, the “relative binding free energy” value came to 0.15 kcal/mol. The result for GGGCGCACGTGGTGTC reads -0.16 kcal/mol; that for TGGATCACGTGGTGGG, 0.17 kcal/mol; that for GTGGGCACGTGGAAGC, 0.05 kcal/mol. The result for TTATTCACGTGGCTCG reads 0.21 kcal/mol; that for GAAAACACGTGTTGGG, 0.19 kcal/mol; that for GTAGGCACGTGTTACG, -0.09 kcal/mol. In the case of AGGGCCACGTGGAGGT, the “relative binding free energy” value is -0.1 kcal/mol. The result for GTTTACACGTGGACGT reads 0.1 kcal/mol; that for CGCGTCACGTGGGGCG, -0.12 kcal/mol; that for ATACGCACGTGTGGGA, -0.06 kcal/mol.

For ATTTGCACGTGCGGGC, the “relative binding free energy” value is 0.03 kcal/mol. To GTGGTCACGTGCGGTC belongs 0.2 kcal/mol; to AGAATCACGTGTCAGG, 0.22 kcal/mol.

For the sequence ATTAGCACGTGAGTAG, the “relative binding free energy” value came out at 0.17 kcal/mol. For the sequence AATAACACGTGTTTGT, the “relative binding free energy” value is -0.05 kcal/mol. The result for AATAACACGTGTGTTT reads -0.15 kcal/mol. In the case of TGGTTCACGTGGACTT, the “relative binding free energy” value turned out to be 0.24 kcal/mol. For the sequence AATAGCACGTGAGTGG, the “relative binding free energy” value stood at 0.03 kcal/mol. GTAGGCACGTGATTTA: the “relative binding free energy” value is -0.03 kcal/mol. To ATGGACACGTGTGTCT belongs -0.03 kcal/mol; to TAGTGCACGTGCATTG, -0.13 kcal/mol; to GGGGGCACGTGGAGTC, -0.07 kcal/mol.

For AAGATCACGTGGAGCG, the “relative binding free energy” value was determined as 0.29 kcal/mol. For the sequence AGAGGCACGTGGAGAG, the “relative binding free energy” value is 0.03 kcal/mol.

Turning to CTTAACACGTGTGGCG, the “relative binding free energy” value stood at 0.15 kcal/mol. On to AGGGGCACGTGCGATG, for which the “relative binding free energy” value was -0.17 kcal/mol. To ACGAGCACGTGTAGTG belongs -0.02 kcal/mol; to TGATGCACGTGCGAGT, -0.02 kcal/mol; to CTGAACACGTGAGGTG, 0.24 kcal/mol. CTGGGCACGTGTCTTG: the “relative binding free energy” value is -0.06 kcal/mol. In the case of TCTGGCACGTGTGATA, the “relative binding free energy” value was -0.05 kcal/mol. In the case of GTAATCACGTGTCTGG, the “relative binding free energy” value stood at 0.15 kcal/mol.

TGTGCCACGTGGCTTG: the “relative binding free energy” value was -0.23 kcal/mol. As to CATGGCACGTGGCAGT, the “relative binding free energy” value was -0.21 kcal/mol. The result for GCTAACACGTGTGGGG reads 0.1 kcal/mol; that for AGTTACACGTGGAAGA, 0.25 kcal/mol. To GATAGCACGTGTTAGT belongs -0.12 kcal/mol; to TAGGGCACGTGGCAAT, -0.16 kcal/mol; to CTGTGCACGTGTGGGA, 0.01 kcal/mol. As to TATAGCACGTGCGTGT, the “relative binding free energy” value is -0.18 kcal/mol. For the sequence GCGCGCACGTGGCGGG, the “relative binding free energy” value was -0.26 kcal/mol. In the case of TAAGTCACGTGTTGTT, the “relative binding free energy” value was 0.17 kcal/mol. To AGTAGCACGTGCAGGG belongs -0.1 kcal/mol; to TTAGGCACGTGCAGGA, -0.1 kcal/mol.

For the sequence CTGGGCACGTGCAGGG, the “relative binding free energy” value was -0.05 kcal/mol. To TTTCTCACGTGTCGAG belongs 0.27 kcal/mol; to TCTAGCACGTGCTAGT, 0 kcal/mol. Regarding TGTGGCACGTGAAAAT, the “relative binding free energy” value was determined as 0.15 kcal/mol. TAAGGCACGTGATGGG: the “relative binding free energy” value is 0.08 kcal/mol.

For TCCGTCACGTGGGATG, the “relative binding free energy” value turned out to be 0.09 kcal/mol.

For GGTGGCACGTGGAAAC, the “relative binding free energy” value turned out to be 0.24 kcal/mol. TTATGCACGTGTTCTA: the “relative binding free energy” value amounted to 0 kcal/mol. The result for AGAGCCACGTGGGGGA reads -0.22 kcal/mol. The result for TTATTCACGTGATAAG reads 0.3 kcal/mol; that for TATGTCACGTGTGGTG, 0.14 kcal/mol; that for AGGCGCACGTGATGGG, 0.07 kcal/mol. For TTGTTCACGTGGCGCA, the “relative binding free energy” value was found to be 0.21 kcal/mol. As for TAAGTCACGTGCTGGT, the “relative binding free energy” value is 0.1 kcal/mol. The result for AGCAGCACGTGTTAGT reads -0.11 kcal/mol; that for TTGTACACGTGGGATC, 0 kcal/mol. The result for TTTAACACGTGAGGGT reads 0.24 kcal/mol.

In the case of TGGGTCACGTGTTTTC, the “relative binding free energy” value is 0.09 kcal/mol. To GATAGCACGTGTGCGG belongs 0.11 kcal/mol.

Values taken from the BET-seq Pho4 binding data (Le et al. 2018).
